Source: patent publication US12043670B2, “Anti-BCMA antibody-drug conjugates and methods of use” (Eisai R&D Management Co., Ltd., priority 2020, dated 2024)

Assays:
[1] = ThermoFluor thermostability (Tm); format: physicochemical; settings: thermostability of selected clones
[2] = system: OPM2 multiple myeloma xenograft; assay: OPM2 xenograft model, unconjugated anti-BCMA antibodies (Studies 1 and 2); format: in vivo, mouse; settings: for Tumor growth inhibition (%, day 28): single intravenous dose 20 mg/kg
Protocol: Methods: Anti-tumor activity was assessed in an OPM2 multiple myeloma xenograft model for a subset of exemplary anti-BCMA antibodies in their naked (unconjugated) form. Four antibodies (AB212, AB214, AB217, and AB218) and a reference antibody (AB200) were tested, split between two studies. OPM2 cells were cultured and expanded for inoculation according to ATCC recommendations. Cells were pelleted and resuspended in a solution of serum-free RPMI-1640 medium (50% v/v) and Matrigel (50% v/v) at a density of 5.0×10^7 cells/mL. Female CB17-Scid mice were inoculated subcutaneously with 100 μL of cell suspension on their right flanks and monitored for tumor growth. When the mean tumor volume reached ˜150 mm^3, mice were randomized into treatment groups and given a single intravenous dose (via tail vein) of 2.0 mg/mL dosing solution at 10 mL/kg for a total dose of 20 mg/kg (day of dosing is denoted by arrows in FIG. 9 and FIG. 10). Mice were weighed and their tumors were measured three times/week to monitor for any changes. Animals with tumors exceeding 2000 mm^3 or 20 mm in any dimension were taken off study and appropriately euthanized according to IACUC protocol. Upon euthanasia, tumor samples and serum were collected and banked for subsequent analyses.

[3] = target: T1, extracellular domain of human BCMA (Homo sapiens, UniProt Q02223); assay: Octet binding assay, human BCMA; settings: Fab format, 200 nM
T1 construct: tips loaded with the extracellular domain of human or rhesus monkey BCMA (amino linked) were generated
T1 sequence (Q02223 1-54 limits assumed): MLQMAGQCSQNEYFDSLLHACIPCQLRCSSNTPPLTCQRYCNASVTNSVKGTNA
Protocol: (§1) The binding affinity of each mutated clone for the extracellular domain of human and monkey BCMA was determined by Octet assay (ForteBio). Amine Reactive 2nd Generation (AR2G) tips loaded with the extracellular domain of human or rhesus monkey BCMA (amino linked) were generated and incubated in a 200 nM solution of each antibody clone (all clones in Fab format). Ligand association and dissociation were determined over 600 seconds (300 seconds for each stage).

[4] = target: T2, extracellular domain of rhesus monkey BCMA (Macaca mulatta, UniProt F7FFA0); assay: Octet binding assay, rhesus monkey BCMA; settings: Fab format, 200 nM
T2 construct: tips loaded with the extracellular domain of human or rhesus monkey BCMA (amino linked) were generated
Protocol: as §1

[5] = OPM2 Study 2, unconjugated antibody, 20 mg/kg, not statistically significant
[6] = OPM2 Study 2, unconjugated antibody

T2 sequence (F7FFA0 1-53): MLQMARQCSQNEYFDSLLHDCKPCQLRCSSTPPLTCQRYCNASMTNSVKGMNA

B1: AB214: humanized anti-BCMA antibody, heavy chain SEQ ID NO: 96, light chain SEQ ID NO: 97 (antibody)
heavy: QVQLVQSGAEVKKPGSSVKVSCKASGGTFSNYWIHWVRQAPGQGLEWMGATYRSQSDTYYNQKYKSRVTITADKSTSTAYMELSSLRSEDTAVYYCARGAVYHGYDVIDNWGQGTLVTVSS[omitted - human IgG1 constant region]
light: DIQMTQSPSSLSASVGDRVTITCRASQSISSYLNWYQQKPGKAPKLLIYATSNLQIGVPSRFSGSGSGTDFTLTISSLQPEDFATYYCQQYRRIPWTFGQGTKLEIKRTVAAPSVFIFPPSDEQLKSGTASVVCLLNNFYPREAKVQWKVDNALQSGNSQESVTEQDSKDSTYSLSSTLTLSKADYEKHKVYACEVTHQGLSSPVTKSFNRGEC
Tm [1]: 81.9 °C | tumor growth inhibition (TGI) ([2]; OPM2 Study 1, unconjugated antibody, 20 mg/kg, eleven days post-dose, not statistically significant): ~33% | Tumor growth inhibition (%, day 28) ([2]; OPM2 Study 1, unconjugated antibody): 33.11%

B2: AB212: humanized anti-BCMA antibody, heavy chain SEQ ID NO: 92, light chain SEQ ID NO: 93 (antibody)
heavy: QVQLVQSGAEVKKPGSSVKVSCKASGGTFSNYWIHWVRQAPGQGLEWMGGTYRSHSDTNYNQKFKSRVTITADKSTSTAYMELSSLRSEDTAVYYCARGAIYHGYDVIENWGQGTLVTVSS[omitted - human IgG1 constant region]
light: DIQMTQSPSSLSASVGDRVTITCRASQSISSYLNWYQQKPGKAPKLLIYATSNLQIGVPSRFSGSGSGTDFTLTISSLQPEDFATYYCQQFRRLPWTFGQGTKLEIKRTVAAPSVFIFPPSDEQLKSGTASVVCLLNNFYPREAKVQWKVDNALQSGNSQESVTEQDSKDSTYSLSSTLTLSKADYEKHKVYACEVTHQGLSSPVTKSFNRGEC
Tm [1]: 81.2 °C | effect on tumor growth [2, 5]: modest effect on tumor growth | Tumor growth inhibition (%, day 28) [2, 6]: −14.50%

B3: AB217: humanized anti-BCMA antibody, heavy chain SEQ ID NO: 102, light chain SEQ ID NO: 103 (antibody)
heavy: QVQLVQSGAEVKKPGSSVKVSCKASGGTFTNYWIHWVRQAPGQGLEWMGATYRSHSDTYYAQKYKSRVTITADKSTSTAYMELSSLRSEDTAVYYCARGAVYHGYDVIDNWGQGTLVTVSS[omitted - human IgG1 constant region]
light: DIQMTQSPSSLSASVGDRVTITCRASQSISSYINWYQQKPGKAPKLLIYATSNLQSGVPSRFSGSGSGTDFTLTISSLQPEDFATYYCQQYRRIPWTFGQGTKLEIKRTVAAPSVFIFPPSDEQLKSGTASVVCLLNNFYPREAKVQWKVDNALQSGNSQESVTEQDSKDSTYSLSSTLTLSKADYEKHKVYACEVTHQGLSSPVTKSFNRGEC
Tm [1]: 78.0 °C | effect on tumor growth [2, 5]: modest effect on tumor growth | Tumor growth inhibition (%, day 28) [2, 6]: 16.14%

B4: AB200_Fab + D99T: AB200 Fab with D99T mutation at heavy chain Kabat position 99, non-mutated AB200 light chain (antibody)
VH: QVQLVQSGAEVKKPGSSVKVSCKASGGTFSNYWMHWVRQAPGQGLEWMGATYRGHSDTYYNQKFKGRVTITADKSTSTAYMELSSLRSEDTAVYYCARGAIYTGYDVLDNWGQGTLVTVSS
light: DIQMTQSPSSLSASVGDRVTITCSASQDISNYLNWYQQKPGKAPKLLIYYTSNLHSGVPSRFSGSGSGTDFTLTISSLQPEDFATYYCQQYRKLPWTFGQGTKLEIKRTVAAPSVFIFPPSDEQLKSGTASVVCLLNNFYPREAKVQWKVDNALQSGNSQESVTEQDSKDSTYSLSSTLTLSKADYEKHKVYACEVTHQGLSSPVTKSFNRGEC
Koff [3]: 0.0003 s⁻¹ | Kon [3]: 80000 M⁻¹ s⁻¹ | Koff [4]: 0.00099 s⁻¹ | Kon [4]: 90000 M⁻¹ s⁻¹
